Test results taken from article PMC4336329 (PLoS ONE, 2015).
In all, about 310,000 compounds went through this assay and about 2,200 (0.71%) showed an effect of 50% or more. The effect is printed as a negative number. The list shows a part of the results.

Target: human ether-à-go-go-related gene (hERG) potassium channel (human, UniProt Q12809)
Experiment: primary screen, population patch clamp on CHO cells stably expressing hERG

Sequence of human ether-à-go-go-related gene (hERG) potassium channel (Q12809 whole entry, looked up): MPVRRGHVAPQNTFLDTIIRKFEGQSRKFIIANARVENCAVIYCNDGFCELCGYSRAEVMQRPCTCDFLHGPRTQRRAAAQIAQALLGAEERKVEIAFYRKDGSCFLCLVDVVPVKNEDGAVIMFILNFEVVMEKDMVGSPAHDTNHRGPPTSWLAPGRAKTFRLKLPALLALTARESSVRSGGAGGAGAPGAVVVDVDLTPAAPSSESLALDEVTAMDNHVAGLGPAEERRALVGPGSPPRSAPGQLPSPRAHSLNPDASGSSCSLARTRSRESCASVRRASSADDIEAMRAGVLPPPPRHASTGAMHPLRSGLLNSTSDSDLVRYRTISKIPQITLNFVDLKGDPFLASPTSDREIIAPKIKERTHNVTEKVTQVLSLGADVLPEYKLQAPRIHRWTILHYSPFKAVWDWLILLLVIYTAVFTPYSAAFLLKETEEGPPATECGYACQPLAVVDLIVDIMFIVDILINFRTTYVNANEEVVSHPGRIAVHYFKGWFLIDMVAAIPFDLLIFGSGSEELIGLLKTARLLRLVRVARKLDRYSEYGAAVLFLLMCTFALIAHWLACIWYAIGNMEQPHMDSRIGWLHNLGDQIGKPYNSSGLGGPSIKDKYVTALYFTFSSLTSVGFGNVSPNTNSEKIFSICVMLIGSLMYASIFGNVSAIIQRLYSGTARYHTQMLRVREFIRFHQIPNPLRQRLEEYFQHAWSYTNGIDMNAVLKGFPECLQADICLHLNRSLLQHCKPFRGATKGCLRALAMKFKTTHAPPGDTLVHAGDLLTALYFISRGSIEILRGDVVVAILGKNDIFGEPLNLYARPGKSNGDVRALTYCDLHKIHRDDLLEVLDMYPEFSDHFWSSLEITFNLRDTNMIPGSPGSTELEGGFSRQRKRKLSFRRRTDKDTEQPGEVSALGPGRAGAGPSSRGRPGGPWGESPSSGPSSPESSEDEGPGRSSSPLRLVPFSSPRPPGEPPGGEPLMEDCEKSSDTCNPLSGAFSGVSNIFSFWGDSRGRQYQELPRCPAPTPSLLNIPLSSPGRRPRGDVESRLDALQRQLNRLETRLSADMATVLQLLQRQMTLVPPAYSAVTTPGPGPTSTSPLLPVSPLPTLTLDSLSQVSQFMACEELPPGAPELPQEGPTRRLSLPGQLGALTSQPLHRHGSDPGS

Row | Compound | hERG current change (%, negative = inhibition) at 1uM [%]
1 | N#Cc1c(NC(=O)c2ccc(Br)o2)n(-c2ccccc2)c2nc3ccccc3nc12 | 14.8
2 | O=C(CSc1nnc(NC(=O)C2CC(=O)N(c3ccc(F)cc3)C2)s1)NCC1CCCO1 (centres unmarked) | 11.7
3 | COC(=O)CCNC(=O)c1ccc2nc(Cc3ccc(OC)cc3)oc2c1 | 13.8
4 | COc1cccc(NC(=O)CN(C)C(=O)c2ccccc2Sc2ccccc2C#N)c1 | 8.02
5 | COc1cccc(CNC(=O)c2ccc(NC(=O)CC3SC(N4CCCC4)=NC3=O)cc2)c1 (centres unmarked) | 5.77
6 | CCn1cc(/C=C2/SC(=S)NC2=O)c(C)n1 | 10.5
7 | COc1ccc(/C=N/NC(=O)c2ccc(Cn3cc([N+](=O)[O-])cn3)o2)cc1O | 15.8
8 | CCOc1ccc(N2C(=O)CC(S/C(N)=N/N=C/c3cccs3)C2=O)cc1 (centres unmarked) | 15.4
9 | CC(C)Oc1cccc(C(=O)NC(=S)N2CCN(c3ccc(C(F)(F)F)cc3[N+](=O)[O-])CC2)c1 | -1.55
10 | CCOC(=O)Nc1nc(C)c(C(=O)N(C)C)s1 | -1.49
11 | CN(C)S(=O)(=O)NC(c1ccccc1)c1ccccc1 | -3.03
12 | CCOC(=O)CNC(=O)c1sc(NC(=O)c2cccc(F)c2)nc1C | 10.9
13 | CCOc1ccc(CCNC(=O)c2nnc(Cc3ccc(F)cc3)o2)cc1OCC | 7.75
14 | FC(F)(F)COc1ccc(-c2nnc(SCc3c(Cl)cccc3Cl)o2)cn1 | 15.4
15 | CC1CN(c2ccc(S(=O)(=O)N3CCCC3)cn2)CC(C)O1 (centres unmarked) | 14.3
16 | O=C(Nc1ccc(N2CCOCC2)c(S(=O)(=O)Nc2ccccc2Cl)c1)c1ccccc1 | 10.4
17 | CCN1CC=C2C(C#N)=C(N)C(C#N)(C#N)[C@H](c3ccoc3)[C@H]2C1 | 7.74
18 | O=c1cnnc(N/N=C/c2c[nH]c3ccccc23)[nH]1 | 12.2
19 | CCCc1cc(C(N)=O)c(NC(=O)c2cc(C)on2)s1 | 0.905
20 | CCc1nnc(NC(=O)CCS(=O)(=O)c2ccc(C)cc2)s1 | 17.4
21 | CSc1nc2ccc(S(=O)(=O)Nc3c(C)n(C)n(-c4ccccc4)c3=O)cc2s1 | 12.2
22 | N#CCSc1nnc(COc2cccc3ccccc23)n1-c1cccc(Cl)c1 | 9.52
23 | CC(C)CC(=O)Nc1ccc(N2CCN(C(=O)c3cccs3)CC2)cc1 | 17.7
